We go through 86 sequences from the supplement of paper PMC4166925.

± gives the standard deviation of the averaged measurements. Over roughly 33,000 sequences, “E-score (dimensionless, -0.5 to 0.5)” has its median near -0.049; the highest 2% begin near 0.37. Some of the results follow.

The subject of the assay is T1, PmTbr T-box DNA-binding domain (GST fusion).
T1 sequence: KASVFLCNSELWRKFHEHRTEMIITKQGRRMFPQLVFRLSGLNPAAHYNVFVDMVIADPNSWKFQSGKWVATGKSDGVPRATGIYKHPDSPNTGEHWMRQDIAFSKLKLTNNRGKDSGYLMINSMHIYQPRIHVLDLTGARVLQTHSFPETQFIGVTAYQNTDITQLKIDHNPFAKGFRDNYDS
Briefly: PBM E-score of 8-mer (E-score (dimensionless, -0.5 to 0.5)); Tbr is Tbrain of the sea star Patiria miniata (Pm) or the sea urchin Strongylocentrotus purpuratus (Sp); higher = stronger binding preference; most listed sequences are background and not binding sites. The following applies: the construct has about 5 more residues each side. The essentials:
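GST-fused Tbr T-box DNA-binding domains (the whole T-box plus about five flanking residues) were expressed in BL21 E. coli at 20 °C and purified by glutathione affinity chromatography. Universal Agilent oligonucleotide arrays were made double-stranded by primer extension, incubated with 200 nM protein in PBS (pH 7.5), then scanned and quantified. Every ungapped 8-mer was scored from probe intensities. The Universal PBM Analysis Suite gave each word an enrichment E-score, averaged over duplicate arrays.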
For GTATACCA, the “PBM E-score of 8-mer” value was 0.0332 ± 0.012. As to AAACACTA, the “PBM E-score of 8-mer” value was 0.0648 ± 0.087. AAAAGGGA: the “PBM E-score of 8-mer” value is -0.282 ± 0.053. With CGCGTTGA, the “PBM E-score of 8-mer” value is 0.148 ± 0.048.

Consider CCGAAGAC, for which the “PBM E-score of 8-mer” value was -0.195 ± 0.034.

As to ATCCAGGC, the “PBM E-score of 8-mer” value is -0.181 ± 0.021. Turning to CTCTAGCC, the “PBM E-score of 8-mer” value is -0.0369 ± 0.02. Consider GGAAGCCC, for which the “PBM E-score of 8-mer” value was -0.317 ± 0.047. Regarding CTCGCCGC, the “PBM E-score of 8-mer” value turned out to be 0.196 ± 0.014. As to CGTAGAGA, the “PBM E-score of 8-mer” value was -0.22 ± 0.0053. Regarding AACCCGAG, the “PBM E-score of 8-mer” value is -0.127 ± 0.026. For the sequence GGTCCCTA, the “PBM E-score of 8-mer” value is -0.162 ± 0.021. On to CGATATAC, for which the “PBM E-score of 8-mer” value was -0.104 ± 0.054.

GCCCTCAA: the “PBM E-score of 8-mer” value is -0.147 ± 0.065. As to CTGTCGTA, the “PBM E-score of 8-mer” value amounted to 0.0388 ± 0.044. Take ACCGGAGA: the “PBM E-score of 8-mer” value is 0.0556 ± 0.013. In the case of GTTTTACA it was 0.0499 ± 0.15. Consider CTCTATTC, for which the “PBM E-score of 8-mer” value is -0.103 ± 0.052. The result for GTAATGAC reads 0.0149 ± 0.0045. The result for ATCCACGC reads 0.052 ± 0.054; that for ACGTGCTA, 0.417 ± 0.019. Regarding CACTGCGA, the “PBM E-score of 8-mer” value was 0.056 ± 0.026. Turning to CTTCTCAA, the “PBM E-score of 8-mer” value came out at 0.101 ± 0.033. The result for AGGAGACA reads 0.0199 ± 0.06. With CTGGGTTC, the “PBM E-score of 8-mer” value is -0.282 ± 0.051.

Turning to GTAAGAGA, the “PBM E-score of 8-mer” value was -0.248 ± 0.022.

For the sequence ACCTTTAT, the “PBM E-score of 8-mer” value was found to be 0.0337 ± 0.024.

With GCGTACCC, the “PBM E-score of 8-mer” value was -0.0721 ± 0.014. With CAATTCGC, the “PBM E-score of 8-mer” value was found to be 0.223 ± 0.0062.

On to GGCGGAGA, for which the “PBM E-score of 8-mer” value is -0.163 ± 0.026. As for GCATCGGC, the “PBM E-score of 8-mer” value is -0.309 ± 0.053. Take GTAGGTTA: the “PBM E-score of 8-mer” value is -0.189 ± 0.025. With GTCTAAGA, the “PBM E-score of 8-mer” value is -0.0702 ± 0.07.

CCCTGTCA: the “PBM E-score of 8-mer” value amounted to 0.187 ± 0.022. Turning to AATGCAAT, the “PBM E-score of 8-mer” value was -0.165 ± 0.014. For GGTTGTTA, the “PBM E-score of 8-mer” value is 0.134 ± 0.02.

CGAACCAG: the “PBM E-score of 8-mer” value was -0.0484 ± 0.098. On to TCTACCAA, for which the “PBM E-score of 8-mer” value was -0.108 ± 0.019. In the case of AGGGCAGA it was -0.12 ± 0.043. As to ACCCTGGA, the “PBM E-score of 8-mer” value was -0.082 ± 0.095. In the case of ATCGAGCG, the “PBM E-score of 8-mer” value was -0.16 ± 0.02. As for ACAGACCT, the “PBM E-score of 8-mer” value was -0.0748 ± 0.12. Consider GATCTACA, for which the “PBM E-score of 8-mer” value was -0.139 ± 0.0057.

AAAATTCA: the “PBM E-score of 8-mer” value is -0.00773 ± 0.07. Take CAAAGGTC: the “PBM E-score of 8-mer” value is -0.13 ± 0.039. In the case of ACGGTTGA it was 0.0857 ± 0.0053; in that of AGTACCCG, -0.0417 ± 0.018.

In the case of AATCGGAT, the “PBM E-score of 8-mer” value is -0.0836 ± 0.085.

For the sequence CCAGTCGA, the “PBM E-score of 8-mer” value is -0.165 ± 0.021.

As to AGTCTTCG, the “PBM E-score of 8-mer” value is -0.00126 ± 0.024. GGGAACGA: the “PBM E-score of 8-mer” value was -0.00795 ± 0.025. As to CAGTGGGA, the “PBM E-score of 8-mer” value is -0.212 ± 0.077. Turning to CATCAAAC, the “PBM E-score of 8-mer” value was -0.0906 ± 0.034. As for GGGTTGGA, the “PBM E-score of 8-mer” value turned out to be 0.07495 ± 0.00042. For CTTACGGA, the “PBM E-score of 8-mer” value is -0.148 ± 0.083. CGGAGAAG: the “PBM E-score of 8-mer” value was determined as 0.0198 ± 0.018.

Turning to CCCACAAA, the “PBM E-score of 8-mer” value is -0.0436 ± 0.055. As for AAATAGTG, the “PBM E-score of 8-mer” value worked out at 0.105 ± 0.017. Take AGTAAGAT: the “PBM E-score of 8-mer” value was -0.0969 ± 0.02. Consider AACTCTCA, for which the “PBM E-score of 8-mer” value was found to be 0.11 ± 0.052.

For CTCCTGGC, the “PBM E-score of 8-mer” value is -0.0793 ± 0.032.

GACTGGAA: the “PBM E-score of 8-mer” value was -0.114 ± 0.012. As to AGGCGCCC, the “PBM E-score of 8-mer” value is -0.0427 ± 0.0063. Regarding CGACAGTA, the “PBM E-score of 8-mer” value amounted to 0.103 ± 0.019.

For ATATTGCC, the “PBM E-score of 8-mer” value was -0.106 ± 0.095.

For the sequence AACACACC, the “PBM E-score of 8-mer” value stood at 0.3 ± 0.019. In the case of AGTACATC it was -0.228 ± 0.039; in that of ACAAAGTA, -0.0804 ± 0.029; in that of ACGCCCAA, 0.0023 ± 0.037.

On to CGGCTGGA, for which the “PBM E-score of 8-mer” value is -0.115 ± 0.022.

Consider AGTAATAC, for which the “PBM E-score of 8-mer” value is -0.265 ± 0.022. Take AGTGAATA: the “PBM E-score of 8-mer” value was determined as 0.05 ± 0.073. As to GGCGCAAC, the “PBM E-score of 8-mer” value turned out to be 0.114 ± 0.099.

AAAGTAAC: the “PBM E-score of 8-mer” value is 0.2154 ± 0.00077. ACCTCTAG: the “PBM E-score of 8-mer” value came to 0.0925 ± 0.0099. Regarding GCTGTCAA, the “PBM E-score of 8-mer” value came out at 0.323 ± 0.014. As to AAGGAAGG, the “PBM E-score of 8-mer” value was -0.149 ± 0.022. Consider TCAGAACA, for which the “PBM E-score of 8-mer” value was -0.164 ± 0.058.

Take CACTAGTC: the “PBM E-score of 8-mer” value was determined as 0.152 ± 0.015. As to GTGCACTA, the “PBM E-score of 8-mer” value turned out to be 0.163 ± 0.0059. On to ACCAGTGC, for which the “PBM E-score of 8-mer” value stood at 0.0674 ± 0.07.

With AAGTGAGT, the “PBM E-score of 8-mer” value was found to be 0.0914 ± 0.0086. The result for CGGTAAGA reads -0.2889 ± 0.0013; that for CCCACGGG, -0.311 ± 0.035. As for AACTGTGC, the “PBM E-score of 8-mer” value turned out to be 0.0163 ± 0.0056.

Regarding CAAGCTCC, the “PBM E-score of 8-mer” value was -0.181 ± 0.059.
